# Data: the supplement of paper PMC8728848
# The list shows a part of the results.
# How the values were obtained:
# Test in all cases: glycan array binding signal (z-score within array); higher = stronger binding
# Conditions in all cases: glycan notation: IUPAC condensed, linker removed
# [1] = biological target: Gal(b1-4)GlcNAc(a1-6)Gal(b1-4)GlcNAc
# In short: (§1)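 Glycan array data came from 3228 arrays in the Consortium for Functional Glycomics database, and only arrays with an available protein sequence were kept. Glycan names were put into IUPAC-condensed notation, and columns mapping to the same glycan were averaged. The binding signal is a within-array Z-score, averaged across arrays of one protein sequence run at different concentrations or buffers and across linkers. A negative Z-score can be read as non-binding.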
# [2] = biological target: Gal(b1-4)GlcNAc(b1-2)Man(a1-3)Man(b1-4)GlcNAc(b1-4)GlcNAc
# In short: as §1
# [3] = biological target: Gal(b1-4)GlcNAc(b1-2)Man(a1-3)[Gal(b1-4)GlcNAc(b1-2)Man(a1-6)]Man(b1-4)GlcNAc(b1-4)GlcNAc
# In short: as §1
# [4] = biological target: Gal(b1-4)GlcNAc(b1-2)Man(a1-3)[Gal(b1-4)GlcNAc(b1-2)Man(a1-6)]Man(b1-4)GlcNAc(b1-4)[Fuc(a1-6)]GlcNAc
# In short: as §1
# [5] = biological target: Gal(b1-4)GlcNAc(b1-2)Man(a1-3)[Man(a1-6)]Man(b1-4)GlcNAc(b1-4)GlcNAc
# In short: as §1
# [6] = biological target: Gal(b1-4)GlcNAc(b1-2)Man(a1-6)Man(b1-4)GlcNAc(b1-4)GlcNAc
# In short: as §1
# [7] = biological target: Gal(b1-4)GlcNAc(b1-2)Man(a1-6)[Man(a1-3)]Man(b1-4)GlcNAc(b1-4)GlcNAc
# In short: as §1
# [8] = biological target: Gal(b1-4)GlcNAc(b1-2)[Gal(b1-4)GlcNAc(b1-4)]Man(a1-3)[Gal(b1-4)GlcNAc(b1-2)Man(a1-6)]Man(b1-4)GlcNAc(b1-4)GlcNAc
# In short: as §1
# [9] = biological target: Gal(b1-4)GlcNAc(b1-3)Gal(b1-3)GlcNAc
# In short: as §1
# [10] = biological target: Gal(b1-4)GlcNAc(b1-3)Gal(b1-4)Glc
# In short: as §1
# [11] = biological target: Gal(b1-4)GlcNAc(b1-3)Gal(b1-4)GlcNAc
# In short: as §1
# [12] = biological target: Gal(b1-4)GlcNAc(b1-3)Gal(b1-4)GlcNAc(b1-3)Gal(b1-4)GlcNAc
# In short: as §1
# [13] = biological target: Gal(b1-4)GlcNAc(b1-3)Gal(b1-4)[Fuc(a1-3)]GlcNAc(b1-3)Gal(b1-4)[Fuc(a1-3)]GlcNAc
# In short: as §1
# [14] = biological target: Gal(b1-4)GlcNAc(b1-3)GalNAc
# In short: as §1
# [15] = biological target: Gal(b1-4)GlcNAc(b1-3)[Gal(b1-4)GlcNAc(b1-6)]Gal(b1-4)GlcNAc
# In short: as §1
# [16] = biological target: Gal(b1-4)GlcNAc(b1-3)[GlcNAc(b1-6)]Gal(b1-4)GlcNAc
# In short: as §1
# [17] = biological target: Gal(b1-4)GlcNAc(b1-6)Gal(b1-4)GlcNAc
# In short: as §1
# [18] = biological target: Gal(b1-4)GlcNAc(b1-6)Gal(b1-4)GlcNAc(b1-6)GalNAc
# In short: as §1
# [19] = biological target: Gal(b1-4)GlcNAc(b1-6)GalNAc
# In short: as §1
# [20] = biological target: Gal(b1-4)GlcNAc(b1-6)[Gal(b1-3)]GalNAc
# In short: as §1
# [21] = biological target: Gal3S(b1-3)GalNAc
# In short: as §1
# [22] = biological target: Gal3S(b1-3)GlcNAc
# In short: as §1
# [23] = biological target: Gal3S(b1-3)[Fuc(a1-4)]GlcNAc
# In short: as §1
# [24] = biological target: Gal3S(b1-4)Glc
# In short: as §1
# [25] = biological target: Gal3S(b1-4)Glc6S
# In short: as §1
# [26] = biological target: Gal3S(b1-4)GlcNAc
# In short: as §1
# [27] = biological target: Gal3S(b1-4)GlcNAc6S
# In short: as §1
# [28] = biological target: Gal3S(b1-4)[Fuc(a1-3)]Glc
# In short: as §1
# [29] = biological target: Gal3S4S(b1-4)GlcNAc
# In short: as §1
# [30] = biological target: Gal3S6S(b1-4)GlcNAc
# In short: as §1
# [31] = biological target: Gal3S6S(b1-4)GlcNAc6S
# In short: as §1
# [32] = biological target: Gal4S(b1-4)GlcNAc
# In short: as §1
# [33] = biological target: Gal4S6S(b1-4)GlcNAc
# In short: as §1
# [34] = biological target: Gal6S(b1-4)Glc
# In short: as §1
# [35] = biological target: Gal6S(b1-4)Glc6S
# In short: as §1
# [36] = biological target: Gal6S(b1-4)GlcNAc
# In short: as §1
# [37] = biological target: Gal6S(b1-4)GlcNAc6S
# In short: as §1
# [38] = biological target: GalNAc(a1-3)Gal
# In short: as §1
# [39] = biological target: GalNAc(a1-3)GalNAc
# In short: as §1
# [40] = biological target: GalNAc(b1-3)Gal
# In short: as §1
# [41] = biological target: GalNAc(b1-3)Gal(a1-4)Gal(b1-4)GlcNAc
# In short: as §1
# [42] = biological target: GalNAc(b1-3)Gal(a1-4)Gal(b1-4)GlcNAc(b1-3)Gal(b1-4)Glc
# In short: as §1
# [43] = biological target: GalNAc(b1-3)GalNAc
# In short: as §1
# [44] = biological target: GalNAc(b1-4)GlcNAc
# In short: as §1
# [45] = biological target: GalNAc(b1-4)GlcNAc(b1-2)Man(a1-3)[GalNAc(b1-4)GlcNAc(b1-2)Man(a1-6)]Man(b1-4)GlcNAc(b1-4)GlcNAc
# In short: as §1
binder,measurement,setting,value
"DC-SIGN (Canis lupus), XP_853402 (protein) AGLCRPCPWKWELFQESCYFFSQTQNTWKESISACQNLRAQLVIINSTEEQKFLKSWNTRNNQRTWIGLSDHHNEGSWKWVDNTPLQLSFWKEGEPNNHGDEDCVELYSDGWNDNRCSTENFWICKKPSSPCPGPGLNDIFEAQKIEWHE",glycan array binding signal (z-score),[1],-0.306
same,glycan array binding signal (z-score),[2],-0.277
same,glycan array binding signal (z-score),[3],-0.314
same,glycan array binding signal (z-score),[4],-0.38
same,glycan array binding signal (z-score),[5],-0.268
same,glycan array binding signal (z-score),[6],-0.292
same,glycan array binding signal (z-score),[7],-0.247
same,glycan array binding signal (z-score),[8],-0.262
same,glycan array binding signal (z-score),[9],-0.125
same,glycan array binding signal (z-score),[10],-0.251
same,glycan array binding signal (z-score),[11],-0.203
same,glycan array binding signal (z-score),[12],-0.222
same,glycan array binding signal (z-score),[13],-0.072
same,glycan array binding signal (z-score),[14],-0.237
same,glycan array binding signal (z-score),[15],-0.277
same,glycan array binding signal (z-score),[16],-0.188
same,glycan array binding signal (z-score),[17],-0.212
same,glycan array binding signal (z-score),[18],-0.091
same,glycan array binding signal (z-score),[19],-0.232
same,glycan array binding signal (z-score),[20],-0.253
same,glycan array binding signal (z-score),[21],0.029
same,glycan array binding signal (z-score),[22],-0.026
same,glycan array binding signal (z-score),[23],-0.098
same,glycan array binding signal (z-score),[24],-0.111
same,glycan array binding signal (z-score),[25],-0.131
same,glycan array binding signal (z-score),[26],-0.113
same,glycan array binding signal (z-score),[27],-0.224
same,glycan array binding signal (z-score),[28],0.185
same,glycan array binding signal (z-score),[29],-0.233
same,glycan array binding signal (z-score),[30],-0.036
same,glycan array binding signal (z-score),[31],-0.119
same,glycan array binding signal (z-score),[32],-0.215
same,glycan array binding signal (z-score),[33],0.055
same,glycan array binding signal (z-score),[34],-0.143
same,glycan array binding signal (z-score),[35],-0.246
same,glycan array binding signal (z-score),[36],-0.003
same,glycan array binding signal (z-score),[37],-0.191
same,glycan array binding signal (z-score),[38],0.043
same,glycan array binding signal (z-score),[39],0.12
same,glycan array binding signal (z-score),[40],-0.329
same,glycan array binding signal (z-score),[41],-0.174
same,glycan array binding signal (z-score),[42],-0.281
same,glycan array binding signal (z-score),[43],-0.154
same,glycan array binding signal (z-score),[44],-0.21
same,glycan array binding signal (z-score),[45],0.245
